Source: PMC4336329 (PLoS ONE, 2015)
Out of some 310,000 compounds screened, about 2,200 (0.71%) showed an effect of 50% or more. The effect is printed as a negative number. This is one part of the list.

Target: human ether-à-go-go-related gene (hERG) potassium channel (human, UniProt Q12809)
Assay: primary screen, population patch clamp on CHO cells stably expressing hERG

Sequence of human ether-à-go-go-related gene (hERG) potassium channel (Q12809 whole entry, looked up): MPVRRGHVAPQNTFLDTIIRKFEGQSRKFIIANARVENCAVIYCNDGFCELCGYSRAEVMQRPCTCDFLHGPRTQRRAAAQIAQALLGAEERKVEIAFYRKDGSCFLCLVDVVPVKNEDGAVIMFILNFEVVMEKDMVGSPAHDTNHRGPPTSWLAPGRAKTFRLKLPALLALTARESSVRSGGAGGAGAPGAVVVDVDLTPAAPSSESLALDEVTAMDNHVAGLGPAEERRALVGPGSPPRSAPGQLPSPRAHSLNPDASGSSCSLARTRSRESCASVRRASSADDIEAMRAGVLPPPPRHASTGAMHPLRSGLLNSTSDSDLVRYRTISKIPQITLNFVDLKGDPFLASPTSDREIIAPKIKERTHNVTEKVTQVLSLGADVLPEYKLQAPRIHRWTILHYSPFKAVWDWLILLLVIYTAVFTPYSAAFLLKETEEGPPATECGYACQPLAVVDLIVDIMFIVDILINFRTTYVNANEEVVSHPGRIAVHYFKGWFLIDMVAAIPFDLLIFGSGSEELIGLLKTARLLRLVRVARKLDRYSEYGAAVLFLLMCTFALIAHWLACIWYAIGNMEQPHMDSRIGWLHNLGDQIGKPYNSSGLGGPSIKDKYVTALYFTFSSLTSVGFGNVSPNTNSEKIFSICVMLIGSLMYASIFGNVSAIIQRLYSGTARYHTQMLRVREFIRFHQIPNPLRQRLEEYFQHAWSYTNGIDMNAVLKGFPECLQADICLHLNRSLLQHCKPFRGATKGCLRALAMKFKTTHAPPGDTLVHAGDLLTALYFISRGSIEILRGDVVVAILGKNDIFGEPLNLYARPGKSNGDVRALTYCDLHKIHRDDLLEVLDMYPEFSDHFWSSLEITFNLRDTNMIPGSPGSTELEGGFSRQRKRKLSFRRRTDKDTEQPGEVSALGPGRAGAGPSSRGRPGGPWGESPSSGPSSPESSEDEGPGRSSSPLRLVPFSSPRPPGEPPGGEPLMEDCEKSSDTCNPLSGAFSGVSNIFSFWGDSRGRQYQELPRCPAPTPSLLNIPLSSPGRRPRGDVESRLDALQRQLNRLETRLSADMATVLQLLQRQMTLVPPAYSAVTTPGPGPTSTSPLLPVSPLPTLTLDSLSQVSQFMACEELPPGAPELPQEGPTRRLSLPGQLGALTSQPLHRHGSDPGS

SMILES | hERG current change (%, negative = inhibition) at 1uM
Cc1ccc(SCCC(=O)Nc2ccccc2Br)cc1 | 15.8%
O=C(c1cc2sccc2n1Cc1ccc(F)cc1)N1CCc2ccccc21 | 18.4%
CC(Sc1n[nH]c(=O)n1Cc1ccccc1)C(=O)NC1CCCCC1C (stereo not shown) | 11.2%
Cc1ccc(S(=O)(=O)c2nc(-c3cccs3)oc2NCCCN(C)C)cc1 | 0.338%
O=C(c1cccc(S(=O)(=O)N2CCCC2)c1)N1CCCc2ccccc21 | 7.02%
CN(C)c1ccc(C2NC(=O)c3ccccc3N2)cc1 (stereo not shown) | 13.4%
CC1CC2(NC(=O)NC2=O)C(C)CN1C (stereo not shown) | 6.6%
Cc1cc(C)cc(OCC(=O)O/N=C(\N)Cc2ccc([N+](=O)[O-])cc2)c1 | 10.2%
COc1ccc(-c2noc(-c3ccc(Cl)cc3)n2)cc1 | 10.8%
COc1cc(C(=O)N/N=C/c2ccc3c(c2)c2ccccc2n3C)ccc1O | 15.4%
CCS(=O)(=O)c1ccc(S(=O)(=O)CC)s1 | -16.1%
C=CCOc1ccc(/C=C\c2nc(O)c([N+](=O)[O-])c(=O)[nH]2)cc1OC | 9.51%
O=C(Nc1ccc(Cl)cc1)Nc1cc([N+](=O)[O-])ccc1F | 2.23%
CC(C)=NOCC(=O)Nn1c(COc2ccccc2)nc2ccccc2c1=O | 12.8%
CNS(=O)(=O)c1cc(OC)ccc1OC | 7.1%
Cc1nn(C(C)C(=O)NCc2ccco2)c(C)c1[N+](=O)[O-] (stereo not shown) | 9.63%
COc1ccccc1C(=O)Nc1ccc2c(c1)CCCN2C(=O)c1cccs1 | 6.27%
Cc1ccc(CCC(=O)Nc2ccc(Cl)cc2)o1 | 14.7%
Cc1ccc(C(=O)CSc2cc(C)nc(SCC(=O)c3ccccc3)n2)cc1 | 16.7%
CCOC(=O)c1cn(CC)c2cc(F)c(F)cc2c1=O | 15.6%
O=[N+]([O-])c1ccc(N/N=C/c2ccc[nH]2)cc1 | 9.57%
Cl.OCCNc1nc(Nc2ccccc2)nc2ccccc12 | -5.62%

SMILES | hERG current change (%, negative = inhibition) at 1uM
CSc1ccc(/C=N/N2CCN(C)CC2)cc1.Cl | 4.96%
O=C(/N=C1\NC(=O)C(F)(C(F)(F)F)S1)NC1CCCCC1 (stereo not shown) | 9.35%
COc1ccc(-n2c(SCC(N)=O)nnc2-c2cccnc2)cc1 | 7.82%
Cc1cccn2c(=O)c(/C=C(\C#N)C(=O)NC3CCS(=O)(=O)C3)c(Oc3ccc(F)cc3)nc12 (stereo not shown) | 7.54%
COCCN(C(=O)COC(=O)Cc1coc2cc3c(cc12)CCC3)c1c(N)n(Cc2ccccc2)c(=O)[nH]c1=O | 8.2%
CN(CC(O)CN)CC(O)CN1CCCCC1.Cl (stereo not shown) | 7.98%
CCN(CCCNS(=O)(=O)c1ccc2c(c1)CCN2C(C)=O)c1cccc(C)c1 | 20.5%
COc1ccc(C(=O)Nc2ccc(S(=O)(=O)NC(C)(C)C)cc2)cc1[N+](=O)[O-] | 16.3%
Cc1n[nH]c(=O)c2c(NC(=O)CSc3ccc(F)cc3)oc(C)c12 | 11.7%
COCCCn1c(Cc2ccccc2)nnc1SCC(=O)N1CCCCC1 | -5.79%
CC1=C(C(=O)OCc2ccccc2)C(c2ccc(-c3ccccc3)cc2)NC(=O)N1CCCCCC(=O)O (stereo not shown) | 5.22%
O=C(N/N=C\c1cn[nH]c1-c1ccccc1)c1ccc([N+](=O)[O-])cc1 | -13.2%
COc1ccccc1/C=C/CN1CCOCC1 | 6.64%
Cn1c(=O)c2cc(S(=O)(=O)NCCC(=O)N3CC=C(c4ccccc4)CC3)ccc2n(C)c1=O | -7.85%
COc1cc(Cl)c(C)cc1NC(=O)c1ccc(NS(=O)(=O)c2ccc(F)c(F)c2)cc1 | 10.4%
O=S(=O)(/C=C/c1ccccc1)Nc1ccc(F)cc1 | 10.7%
CCCCCC(=O)Nc1cccc(C2=NOC3(C2)C[C@@H](C(N)=O)N(C(=O)c2cc([N+](=O)[O-])cc([N+](=O)[O-])c2)C3)c1 (stereo partly shown) | 13.1%
Cc1cc(OC(=O)c2cccc(F)c2)c([N+](=O)[O-])c(=O)[nH]1 | 12.7%
COc1ccc(N2CCN(C(=O)Cn3c(=O)[nH]c4ccsc4c3=O)CC2)cc1 | 4.71%
CCOc1cc(C2C3=C(CCCC3=O)Nc3ccc4ncccc4c32)ccc1O (stereo not shown) | 12.3%
CCSc1ccccc1C(=O)NC1CCCCC1 | 19.4%
O=C(NCc1cccnc1)c1ccc([N+](=O)[O-])cc1 | 6.28%

SMILES | hERG current change (%, negative = inhibition) at 1uM
CC(C)Oc1ccc(C2CC(=O)N(c3ccc(N(C)C)cc3)C2=O)cc1 (stereo not shown) | 13.7%
CC(c1ccccc1)n1cncc1C(=O)N1CCCC1=O.Cl (stereo not shown) | 4.79%
CC(=O)c1cccc(NC(=O)COC(=O)COc2ccccc2C)c1 | 8%
Cc1ccc(/C=C2\C(=O)NC(=S)N(c3ccc(F)cc3)C2=O)o1 | 17.4%
Cc1ccc(N(c2ncnc(N)c2[N+](=O)[O-])C2CCCCC2)cc1 | -2.25%
CC1CCN(S(=O)(=O)c2ccc(N=NC3=C(O)CC(C)(C)CC3=O)cc2)CC1 | 10.1%
CN1CCN(c2cc(N3CCCCCC3)c(F)cc2[N+](=O)[O-])CC1 | 5.78%
O=C(c1ccccn1)N1CCN(c2ccc(C(F)(F)F)cn2)CC1 | -2.86%
Cc1cc(NC(=O)CCC(=O)NNC(=O)c2ccc(C(C)(C)C)cc2)no1 | 6.49%
Cc1cc(C)c(OC2(c3ccccc3)OC(=O)c3ccccc32)c(C)c1 (stereo not shown) | -0.648%
CCOC(=O)CN1C(=O)CSc2ccccc21 | 12.1%
C=CCN1N=C(/C=C/c2ccc(C)cc2)CCC1=O | 12.9%
COc1ccc(F)cc1S(=O)(=O)NCCCn1ccnc1 | 20.5%
O=C(O)c1ccc(CN2C(=O)c3ccc(Oc4ccc([N+](=O)[O-])cc4)cc3C2=O)cc1 | 8.25%
C=CCNC(=O)C1CC(=O)N(c2ccc(OCC(=O)Nc3ccc(Cl)cc3)cc2)C1 (stereo not shown) | 9.58%
CCN(CC)C(=O)Nc1cnc2ccccc2c1 | 12.6%
CCOc1ccc(Cl)cc1S(=O)(=O)N1CCC(C(=O)NCc2ccncc2)CC1 | 12.1%
COc1ccc(C2=NOC(C(=O)O)C2)cc1 (stereo not shown) | 3.26%
COc1ccccc1C(=O)NC(=S)N1CCc2ccccc21 | 30.8%
O=C(CCn1c(=S)[nH]c2cc3c(cc2c1=O)OCO3)N1CCc2ccccc2C1 | 1.55%
O=S(=O)(NCCc1ccccc1)c1cccc(S(=O)(=O)N2CCOCC2)c1 | 4.96%
CCOC(=O)c1ccc(NC(=O)CN2C(=O)CSC2=O)cc1 | -7.9%

SMILES | hERG current change (%, negative = inhibition) at 1uM
COc1ccc(C2C(C(=O)N3CCN(C)CC3)c3cc(OC)c(OC)cc3C(=O)N2C)cc1 (stereo not shown) | -2.46%
Cl.O=C(CCN1CCc2ccccc2C1)c1ccc2c(c1)OCCO2 | -13.3%
NC(=O)c1ccccc1NC(=O)COC(=O)C1(c2ccccc2)CC1 | 8.91%
COc1ccc(C2c3cc(OC)c(OC)cc3CCN2C(=O)c2ccccc2)cc1OC (stereo not shown) | 15.7%
CCOC(=O)CSc1nc2cc(C(=O)NCc3ccco3)ccc2c(=O)n1-c1ccc(F)cc1 | 1.34%
Cc1cccc(N(CC(=O)NC2CCCCC2)C(=O)c2c(C)noc2C)c1 | 16.8%
Cc1oc(-c2ccc(Cl)cc2)nc1CS(=O)CC(=O)NC1CCCC1 (stereo not shown) | 10.6%
COc1cc2cc(C(=O)N/N=C/c3cccc(OC)c3OC)[nH]c2cc1OC | 6.39%
CC1CCCC(C)N1CCCNC(=O)c1ccc2nc(N3CCCCC3)sc2c1 (stereo not shown) | -6.55%
O=C(NCC(=O)N(Cc1cccs1)C(C(=O)NC1CCCCC1)c1ccco1)c1cccs1 (stereo not shown) | 8.28%
COc1ccc(-n2nc(C(=O)NCC(=O)N3CCN(c4ccccc4F)CC3)c3ccccc3c2=O)cc1OC | -1.44%
Cc1nc2ccccc2c(=O)n1/N=C/c1cc(Br)cc(Br)c1O | 11.6%
CCN(CC)CCCNC(=S)N1CCC(c2nc3ccccc3[nH]2)CC1 | 10.7%
O=C1C2CCCN2C(c2ccccc2)N1c1ccc(F)cc1 (stereo not shown) | 7.34%
Nc1cc(Cl)ccc1C(=O)OCC(=O)N1CCOCC1 | 17.5%
CCC(=O)N(Cc1ccco1)C1CC(=O)N(c2ccccc2)C1=O (stereo not shown) | -34.3%
NC(=O)c1ccc(SCC(=O)OCC(=O)N2CCCC2=O)c([N+](=O)[O-])c1 | -3.22%
O=C(/C=C/c1ccccc1)NCCc1ccc2c(c1)OCCO2 | -3.68%
Cc1cc(C)c2c(n1)nn1c(NCCCN(C)C)cc(C)nc21 | -0.862%
O=C(Cc1cccs1)Nc1ccc(-c2nnn(CC(=O)N3CCOCC3)n2)cc1 | 11.7%
CC1CCCN(C(=O)CSc2nnc(-c3ccco3)n2C)C1 (stereo not shown) | 11.3%
CCOc1ccc(C(=O)NCC(=O)NCC(c2ccco2)N2CCCCC2)cc1 (stereo not shown) | 5.61%
